In all, about 45,000 compounds went through this assay and about 65 (0.1%) were called active. Calls come from the whole dose curve; as a rule, active = well fitted activation curve with a large enough effect; inconclusive = small, poorly fitted or top-dose-only effect; inactive = no such curve, though single readings can be large or run the other way. Some of the results follow.
Target: Galactocerebrosidase (Homo sapiens) (UniProt P54803)
Test: A Novel Cell-Based Assay to Identify Small Molecules for B -Galactocerebrosidase; note: nearly all actives have a fitted effect of over 65% in size; for activation: 0% is about no effect
Settings: 145M-Twi-hGALC-G270D cells (Twitcher mouse brain line with human GALC G270D), HMU-beta-Gal fluorescence, 48 h; series mostly up to 57.5 µM; activation: at the top concentration
How it was run: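 Brain-derived Twitcher mouse 145M-Twi cells stably expressing human GALC-G270D or wild-type GALC, treated live, then residual GALC activity read by fluorescence of HMU-b-Gal substrate (0.1 mM final) in citrate-phosphate buffer pH 5.2 with sodium taurocholate. Signal increase indicates enhancement.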
Potency is the fitted concentration of half-maximal effect.

Sequence of UniProt P54803 (P54803 whole entry, looked up): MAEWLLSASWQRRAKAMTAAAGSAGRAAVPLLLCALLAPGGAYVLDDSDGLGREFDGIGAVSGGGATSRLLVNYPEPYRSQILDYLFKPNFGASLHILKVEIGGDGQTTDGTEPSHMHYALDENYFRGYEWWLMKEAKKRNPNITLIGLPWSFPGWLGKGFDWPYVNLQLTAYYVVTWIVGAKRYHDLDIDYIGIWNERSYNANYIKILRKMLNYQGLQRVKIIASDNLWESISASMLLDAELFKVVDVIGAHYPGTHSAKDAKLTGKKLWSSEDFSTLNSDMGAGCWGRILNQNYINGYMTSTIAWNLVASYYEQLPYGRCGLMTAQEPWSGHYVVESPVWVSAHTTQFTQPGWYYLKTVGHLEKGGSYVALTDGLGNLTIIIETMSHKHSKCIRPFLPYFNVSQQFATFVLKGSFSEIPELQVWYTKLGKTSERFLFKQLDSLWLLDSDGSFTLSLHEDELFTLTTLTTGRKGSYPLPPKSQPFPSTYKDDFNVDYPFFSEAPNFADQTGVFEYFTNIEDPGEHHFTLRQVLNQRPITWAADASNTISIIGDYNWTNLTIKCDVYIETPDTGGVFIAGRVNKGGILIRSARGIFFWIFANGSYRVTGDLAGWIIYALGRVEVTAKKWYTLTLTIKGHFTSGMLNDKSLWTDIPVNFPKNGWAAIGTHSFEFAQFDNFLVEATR

SMILES | activation | Potency
O=C(Cn1cc(SCc2ccccc2F)c2ccccc21)N1CCCC1 | inactive: -13.7% | –
Cn1c(=O)c2cc(C(=O)Nc3cccc(C#N)c3)sc2c2ccccc21 | inactive: -11.4% | –
COc1ccc(C2=NN(CC(=O)NCCc3ccccc3)C(=O)CC2)cc1 | inactive: -19.6% | –
CCC(=O)Nc1ccccc1-c1nc2ccccc2n(CC(=O)Nc2ccc(C)c(C)c2)c1=O | inactive: 0.803% | –
CCCCOc1ccc(OCCCN2CCOCC2)cc1 | inactive: -5.92% | –
CCc1ccc(NC(=O)C2CCN(S(=O)(=O)c3c(C)noc3C)CC2)cc1 | inactive: -18.7% | –
O=C(NC1CCCC1)c1ccc(CSc2nc3cccnc3n2Cc2ccccc2)cc1 | inactive: -6.76% | –
O=C(NCc1ccccc1)c1ccc2c(c1)N(Cc1ccc(F)cc1)CCS2 | inactive: -5.32% | –
COc1ccc(CCNC(=O)CSCc2nc(-c3cccc(C)c3)oc2C)cc1OC | inactive: -9.12% | –
COc1ccc(Cl)cc1NC(=O)c1sc2nc(-c3ccc(OC)c(OC)c3)ccc2c1N | – | active: 11.2 µM
COC(=O)c1ccc(NC(=O)NC(C)c2c(-n3cccc3)sc(C)c2C)cc1 (stereo not given) | inactive: -9.55% | –
CCCNC(=O)C1CCC(Cn2c(=O)c3sccc3n(CC(=O)N3CCCC3)c2=O)CC1 (stereo not given) | inactive: -6.49% | –
CCc1cccc(C)c1NC(=O)CN1C(=O)c2ccccc2Sc2ncccc21 | inactive: -9.36% | –
COC(=O)c1sc2cccc(F)c2c1S(=O)(=O)Nc1cc(C)c(Cl)cc1OC | inactive: -8.96% | –
O=C(COc1ccc(Cl)cc1)Nc1ccc(-c2nc3cc(Cl)ccc3o2)c(O)c1 | inactive: -7.42% | –
CCc1ccc(S(=O)(=O)c2nnn3c2nc(N2CCC(C(N)=O)CC2)c2cc(Cl)ccc23)cc1 | inactive: -0.197% | –
Cc1c(C(=O)Nc2cccc(C#N)c2)sc2nc3n(c(=O)c12)CCCCC3 | inactive: -12.2% | –
COc1ccc(CNC(=O)c2cc3oc4ccccc4c3n2C)cc1OC | inactive: -20.8% | –
CCCNC(=O)CN1C(=O)c2c(c3ccccc3n2C)C1c1ccc(OC)cc1 (stereo not given) | inactive: -2.92% | –
CN[C@@H]1[C@@H](O)[C@@H](O[C@@H]2[C@H](O)[C@H](O[C@H]3OC(CN)=CC[C@H]3N)[C@@H](N)C[C@H]2N)OCC1(C)O (stereo not given in full) | inactive: -13.7% | –
CCCC(=O)n1nc(-c2cccnc2)nc1NCc1ccccc1 | inactive: -15.4% | –
CCc1ccccc1NC(=O)Cn1c(=O)n(CCc2ccccc2)c(=O)c2ccccc21 | inactive: -6.36% | –
CCOc1ccc(NC(=O)CCC(=O)N2CCSc3ccccc32)cc1 | inactive: -17.3% | –
COc1ccc(Cn2c(CCC(=O)Nc3ccc(OC)c(Cl)c3)nc3cccnc32)cc1 | inactive: -22.5% | –
COc1ccc(N2CCN(C(=O)Nc3ccccc3Cl)CC2)cc1 | inactive: -1.14% | –

SMILES | activation | Potency
Clc1ccccc1-c1nnc(SCc2nc(-c3ccccc3)no2)n1-c1ccccc1 | inactive: -16.1% | –
O=C(NCCc1ccc(Cl)cc1)c1ccc(CSCc2ccc(Cl)cc2)o1 | inactive: -14.5% | –
CCOC(=O)N1CCN(S(=O)(=O)N2CCCC(C(=O)NCc3ccc(OC)cc3OC)C2)CC1 (stereo not given) | inactive: 1.33% | –
O=c1oc2ccc(Cl)cc2cc1-c1cn2c(n1)sc1ccccc12 | inactive: -8.92% | –
CCCCNC(=O)CCSc1nc(-c2ccc3c(c2)OCO3)cc(C(F)(F)F)n1 | inactive: -15.3% | –
COc1cccc(NC(=O)CSC2=Nc3ccccc3C3=NC(CC(=O)NCc4ccccc4OC)C(=O)N23)c1 (stereo not given) | inactive: 3.44% | –
COc1ccc(NS(=O)(=O)c2c(C)nc3scc(C)n3c2=O)cc1 | inactive: -13% | –
O=C(Nc1ccc2nc(SCC(=O)N3CCOCC3)sc2c1)c1cccc(F)c1 | inactive: -18.1% | –
Cc1cccc(OCC(=O)N(Cc2ccc(N(C)C)cc2)Cc2ccco2)c1C | inactive: -24% | –
COc1ccc(C2C=C(c3ccccc3)Nc3nc(NC(=O)/C=C/c4ccccc4OC)nn32)cc1 (stereo not given) | inactive: -4.21% | –
Cc1ccnc2nc(NC(=O)c3ccccc3Cl)nn12 | inactive: -16.7% | –
OC[C@@H](O)[C@H](O)[C@H](O)[C@@H](O)CO | – | inactive
CCOc1ccc(NC(=O)c2c(NCc3cccs3)sc3c2CCCCC3)cc1 | inactive: -7.54% | –
COC(=O)c1scc(-c2ccccc2)c1S(=O)(=O)Nc1ccc(C)c(Cl)c1 | inactive: -10.4% | –
CC(=O)c1cc(-c2ccccc2)n(CCC(=O)NC2CCCCC2)c1C | inactive: -10.8% | –
CC12CN3CC(c4ccccc4)(CN(C1)C3c1ccc(Cl)cc1)C2=O (stereo not given) | inactive: -0.982% | –
O=C(NCC1CCCCN1)c1cc(OCC(F)(F)F)ccc1OCC(F)(F)F (stereo not given) | inactive: -8.79% | –
COc1ccccc1CNC(=O)c1ccc(CS(=O)c2ccccc2Cl)o1 (stereo not given) | inactive: -11% | –
CC1CCc2cc(F)cc3c(=O)c(C(=O)O)cn1c23 (stereo not given) | inactive: -7.96% | –
CCc1ccc(S(=O)(=O)c2nnn3c2nc(NC(C)C)c2cc(Cl)ccc23)cc1 | inactive: -18.9% | –
Cc1cccc(N(CC(=O)N(C)Cc2ccccc2)S(=O)(=O)c2ccccc2)c1C | inactive: -15.6% | –
CCC(=O)N1CCc2cc(Br)cc(S(=O)(=O)N3CCCC(C(=O)Nc4ccc(OC)cc4OC)C3)c21 (stereo not given) | inactive: 9.14% | –
COc1ccc(NC(=O)C(=O)NCc2ccco2)c(OC)c1 | inactive: -13.1% | –
COc1ccc(N2CCN(c3oc(/C=C/c4ccccc4OC)nc3C#N)CC2)cc1 | inactive: -10.7% | –
O=C(Nc1ccc(C(=O)OCc2cc(=O)n3ccsc3n2)cc1)c1cccc(F)c1 | inactive: -26.1% | –

— PubChem BioAssay AID1159614 (National Center for Advancing Translational Sciences (NCATS), 2016)
